According to patent US20240218073A1, “IMMUNOMODULATORY ANTI-CD73 ANTIBODIES AND USES THEREOF” (Corvus Pharmaceuticals, Inc., priority 2019, published 2024):

Legend:
Naïve B cells = assay: B cell morphology (cytospin, Wright Giemsa staining); format: cell-based, human; details: 48 hours after treatment, 3 donors
Experimental: FIG. 8 are representative microscopy images of human B cells. Cells were treated with CPI-006 or hIgG1 isotype control (top row). Stimulation of B cells through IgM represents a known method for activating B cells and promoting differentiation. Anti-IgM, along with an appropriate isotype control, were therefore included as a positive control (bottom row). Images were collected 48 hours after treatment after cells were cytospun onto slides and Wright Giemsa staining. Data are representative of 3 independent donors.
(§1) CD73 is expressed on subsets of human hematopoietic cells and had previously been implicated to play a role in lymphocyte activation and adhesion. The inventors performed a flow cytometry-based screen to identify differentially expressed cell surface markers on immune cells following in vitro treatment with CPI-006. […] CPI-006 induced activation was dose-dependent with concentrations of 1 μg/mL achieving near maximal induction of CD69 in vitro (FIG. 13C).

human B cells [1] = format: cell-based
B cell clones = assay: Phase 1 trial in cancer patients: B cell receptor repertoire analysis; format: in vivo, human
Experimental: B cell receptor sequencing of the CDR3 region was performed to identify the frequency of B cell clones in peripheral blood samples collected pre-treatment and on-treatment at 6 weeks. Expansion of B cell clones was observed after 6 weeks in 7 of 11 evaluated patients. Clonal abundance plots are shown for patients treated with 6 mg/kg CPI-006 (left panel), 6 mg/kg CPI-006+ ciforadenant (center panel), and 12 mg/kg CPI-006 (right panel). Ciforadenant is also known as CPI-444.
B cell receptor sequencing of the CDR3 region was performed to identify the frequency of B cell clones in peripheral blood samples collected pre-treatment and on-treatment at 6 weeks. Cancer type, treatment, and dosage for each patient are as indicated above each clonal abundance plot.
CPI-006 is being evaluated as an immunotherapy for cancer in an ongoing phase 1 study (NCT03454451). The cancers being evaluated in the study include non-small cell lung cancer, renal cell cancer, colorectal cancer, triple negative breast cancer, cervical cancer, ovarian cancer, pancreatic cancer, endometrial cancer, sarcoma, squamous cell carcinoma of the head and neck, bladder cancer, metastatic castration resistant prostate cancer, and non-Hodgkin lymphoma. […]

[2] = biological target: T1, CD73 expressed on primary human peripheral blood mononuclear cells (Homo sapiens, UniProt P21589); assay: CD73 enzymatic activity on primary human PBMCs (AMP remaining, CellTiterGlo); details: 300 nM antibody, 4 hours incubation with AMP, 9 donors
T1 sequence (P21589 27-549): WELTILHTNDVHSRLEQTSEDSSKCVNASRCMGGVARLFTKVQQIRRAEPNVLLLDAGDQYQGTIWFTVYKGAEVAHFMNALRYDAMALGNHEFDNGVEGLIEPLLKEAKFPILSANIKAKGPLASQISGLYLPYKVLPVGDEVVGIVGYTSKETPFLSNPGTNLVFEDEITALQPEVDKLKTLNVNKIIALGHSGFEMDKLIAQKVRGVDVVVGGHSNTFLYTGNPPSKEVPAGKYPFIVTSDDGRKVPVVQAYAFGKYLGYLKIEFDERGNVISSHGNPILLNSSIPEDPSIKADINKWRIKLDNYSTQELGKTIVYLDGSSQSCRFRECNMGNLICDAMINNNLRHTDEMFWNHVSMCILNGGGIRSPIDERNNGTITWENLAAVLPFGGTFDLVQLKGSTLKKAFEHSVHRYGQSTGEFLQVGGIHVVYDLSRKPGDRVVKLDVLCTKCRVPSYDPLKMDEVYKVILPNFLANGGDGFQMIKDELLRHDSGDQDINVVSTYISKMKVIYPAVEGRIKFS

cellular CD73 = biological target: T2, cellular CD73 (Homo sapiens, UniProt P21589); assay: CD73 catalytic activity on MDA-MB-231 cells (phosphate released from AMP); details: 250 μM AMP, baseline from CRISPR CD73 knockout cells and 1 mM APCP
T2 sequence (P21589 27-549): T1 sequence (P21589 27-549)

T cells [3] = assay: T cell proliferation of anti-CD3/anti-CD28 activated PBMCs in the presence of AMP; format: cell-based, human; details: 500 nM antibody, 13 donors
Experimental: (§2) FIG. 12A: CD73 catalytic activity was measured with MDA-MB-231 cells or MDA-MB-231 CD73 CRISPR cells in the presence of CPI-006, oleclumab, or 1 mM APCP by adding 250 μM AMP and measuring phosphate levels in the cell culture supernatant. FIG. 12B: Human PBMCs were incubated with AMP in the presence of CPI-006, oleclumab, or isotype control antibody at the saturating concentration of 300 nM. After 4 hours of incubation, the AMP remaining in the supernatant was quantified using the CellTiterGlo assay as described in the Methods. Percentage of inhibition was plotted. Data represent 9 individual donors and error bars represent mean±SD. ****p<0.0001 as determined by t-test. FIG. 12C: Human PBMCs were activated with anti-CD3/anti-CD28 in the presence of AMP and a range of doses of CPI-006, oleclumab, or isotype control antibody. T cell proliferation was assessed by flow cytometry. T cell proliferation for 13 donors treated with 500 nM CPI-006 or oleclumab or 890 nM isotype control. Error bars represent mean±SD. *p<0.05, ***p<0.001, and ****p<0.0001 as determined by t-test. […] After 4 days in culture, IFNg levels in the supernatant were measured by AlphaLISA (Perkin Elmer). […] Error bars represent mean±SD. *p<0.05 and **p<0.01 as determined by t-test. […]

B lymphocytes = assay: B cell activation and maturation markers by flow cytometry in vitro; format: cell-based, human
Experimental: FIG. 6 are bar graphs showing CPI-006 directly activates B lymphocytes. Purified B cells were incubated overnight with 10 μg/mL human IgG1 isotype control or CPI-006 or anti-IgM microbeads, a positive control for BCR stimulation. Expression of activation markers CD69, CD83, CD86, CD25 or MHC-II was measured by flow cytometry. Mean fluorescence intensity (MFI) was determined for each activation marker and was normalized to the untreated condition for each donor. The figure legend from top to bottom is representative of each group of four bars from left to right. (N=3-5 donors).
FIG. 7 illustrates expression of CD69 on B cells (CD19+CD3−) as measured by flow cytometry and reported by MFI. Human PBMCs were incubated overnight with 10 μg/mL CPI-006 with or without NECA over a range of concentrations or 10 μM APCP. Expression of CD69 on B cells (CD19+CD3−) was measured by flow cytometry and MFI is reported. Error bars represent mean±SD. *p<0.05, **p<0.01 as determined by t-test.
Human B cells were stimulated in vitro with CPI-006 or CPX-016 (1 ug/ml) or an isotype control for 3 days. IgD and CD27 expression were evaluated by flow cytometry. The mean fluorescence intensity (MFI) of each marker was determined in FlowJo and normalized to CPX-016. N=3 donors shown. For each group of two bars, left bar represents treatment with […] and right bar represents treatment with CPX-006.
FIG. 13A: Purified B cells from 3-5 healthy donors were incubated overnight with human IgG1 isotype control or CPI-006 (10 μg/mL) or anti-IgM microbeads, a positive control for BCR stimulation. Expression of activation markers CD69, CD83, CD86, or MHC-II was measured by flow cytometry. FIG. 13B: Time dependent increases in the expression of CD27, IgG, IgM, CD38, and CD138 on purified B cells cultured in the presence of CPI-006 or isotype control (1 μg/mL). Mean fluorescence intensity (MFI) was determined for each marker and was normalized to the untreated or isotype control for each donor. […] Expression of CD69 (MFI) was measured by flow cytometry. FIG. 13D: Purified B cells were incubated overnight with 10 μg/mL human IgG1 isotype control or CPI-006 or equimolar CPI-006 Fab. CD69 and CD73 were measured on B cells by flow cytometry. FIG. 13E: Human PBMCs were incubated overnight with a fixed concentration of CPI-006 (10 μg/mL) along with ibrutinib or vehicle control over a range of concentrations. Expression of CD69 on B cells (CD19^POSCD3^NEG) was measured by flow cytometry.
as §1

human B cells [4] = tested on: human B cells
[5] = tested on: circulating CD73^POS B cells; assay: Phase 1 trial in cancer patients: peripheral blood immunophenotyping by flow cytometry; format: in vivo, human
[6] = Phase 1 trial in cancer patients: serum immunoglobulins; format: in vivo, human; details: pre-treatment vs 9, 18 and 27 weeks
Text: Blood was collected from patients treated with CPI-006 for immunoglobulins analysis at pre-treatment or prior to dose administration at the beginning of Cycle 4 (9 weeks), Cycle 7 (18 weeks) and Cycle 10 (27 weeks).
CPI-006 is being evaluated as an immunotherapy for cancer in an ongoing phase 1 study (NCT03454451). The cancers being evaluated in the study include non-small cell lung cancer, renal cell cancer, colorectal cancer, triple negative breast cancer, cervical cancer, ovarian cancer, pancreatic cancer, endometrial cancer, sarcoma, squamous cell carcinoma of the head and neck, bladder cancer, metastatic castration resistant prostate cancer, and non-Hodgkin lymphoma. […] Memory B cells are essential for both acute and long-term immunity as they have undergone immunoglobulin rearrangement and somatic hypermutation in order to produce high affinity, antigen-specific antibody upon exposure to antigen. […] These new B cell clones were limited to 2-40 clones per patient and appeared with frequencies as high as 1:100 B cells, consistent with a robust clonal expansion following an antigen-specific response (FIG. 15I-15K). The cognate antigens recognized by these new B cell clones are currently under characterization.

B cells = assay: B cell death / ADCC; format: cell-based, human
T cells [7] = assay: IFNg production of activated PBMCs in the presence of AMP (AlphaLISA); format: cell-based, human; details: PBMCs + anti-CD3/anti-CD28 + AMP, 4 days, 6 donors
Experimental: as §2

CPI-006: humanized anti-CD73 IgG1k antibody with 1E9 CDRs (SEQ ID NO:1-6) and N297Q mutation eliminating Fc effector functions
morphological changes of B cells (Naïve B cells): morphological changes consistent with differentiation into plasmablasts
IgG levels in culture supernatant (class switching) (human B cells [1]; 5000 purified human B cells, 0.1 and 1.0 ug/mL, 7 day incubation): induces antibody class switching to IgG
increase in IgM levels relative to isotype control (human B cells [1]; culture supernatant six days after in vitro treatment): 3 fold
increase in IgG1 levels relative to isotype control (human B cells [1]; culture supernatant six days after in vitro treatment, IgGk not measured): 3 fold
new B cell clones per patient (B cell clones; 21 days after treatment): 2-40 clones per patient
patients with expansion of B cell clones (B cell clones; after 6 weeks, CPI-006 alone or with ciforadenant): 7 of 11
enzymatic activity of CD73 on PBMCs [2]: eliminated the enzymatic activity of CD73
CD73 activity (free phosphate levels generated upon conversion of AMP to adenosine) (cellular CD73): inhibited CD73 activity to baseline levels
T cell proliferation (T cells [3]): restored T cell proliferation in all donors tested
B cell subset activated (B lymphocytes; CD69 and CD73 measured on B cells): restricted to CD73^POS B cells
IgD and CD27 expression (MFI) (B lymphocytes; human B cells, 1 ug/ml, 3 days, normalized to CPX-016, 3 donors): decreases IgD and increases CD27
concentration achieving near maximal induction of CD69 (B lymphocytes; in vitro, dose-dependent): 1 µg/mL
cell surface expression of CD27, IgG, CD38, CD138 (B lymphocytes; purified B cells, 1 μg/mL, time dependent): increased cell surface expression of CD27, IgG, CD38, and CD138
expression of CD69, CD83, CD86, MHC-II on B cells (B lymphocytes; purified B cells, 10 μg/mL, overnight, positive control anti-IgM): upregulation of activation markers (CD69 and CD83) and antigen presentation machinery (CD86 and MHC-II) to similar levels achieved with the positive control
induction of IFNg, IL-2, IL-6, IL-10, TNFa (human B cells [4]; healthy donor PBMCs (data not shown)): did not induce IFNg, IL-2, IL-6, IL-10, or TNFa
production of B cell cytokines CCL3, CCL4, CCL2, CCL22 (human B cells [4]; purified B cells, 10 μg/mL, 5 days): induced production of B cell cytokines such as CCL3, CCL4, CCL2, and CCL22
circulating CD73^POS B cells ([5]; 1-24 mg/kg, 30 minutes after antibody infusion): dramatic decreases in circulating CD73^POS B cells at all CPI-006 dose levels
return of B cells to circulation ([5]; 21-day cycle): returned to circulation at levels similar to baseline by day 21
patients with increase in HLA-DR expression specific to CD73^+ B cells ([5]; single agent or with ciforadenant, Day 7): 5 of 6
memory B cells among returning B cells ([5]; ≥3 mg/kg): enriched in CD27^POS IgD^NEG class switched memory B cells in the majority of subjects
circulating Ig levels in serum [6]: No consistent change in circulating Ig levels
B cell death / ADCC (B cells): does not induce B cell death or initiate ADCC
cytokine (IFNg) production (T cells [7]): restores T cell proliferation and cytokine production
